The RNAGym collection of RNA variant scans (doi:10.7554/elife.90254)
Read counts are not given, so values of variants with three or more changes are uncertain.

B1: LINE1-mini (parent)
chain: GGCAGAGCUCAACACAGCGUGGCAAAGUGGCUGUGGCUAGACUGCC

Variants of: B1
Experiment: self-cleavage, relative activity (ratio to wild type); higher = more cleavage; in vitro, sequencing; the parent is a self-cleaving ribozyme

Row | Variant | self-cleavage
1 | GGCAGAGCUCAAAACAGCGUGGAAAGAUGGCUGUGGCUAGACUGCC [C13A C23A A26G G27A] | 0.08
2 | GGCAGAGCUCAAAACAGCGUGGAAAAGUGGCUGUGGGUAGACUGCC [C13A C23A C37G] | 0.05
3 | GGCAGAGCUCAAAACAGCGUGGAAAAAUGGCUGUGGCUAGACUGCG [C13A C23A G27A C46G] | 0.11
4 | GGCAGAGCUCAAAACAGCGUGGUAAAGCGGAUGUGGCAAGACUGCA [C13A C23U U28C C31A U38A C46A] | 0.03
5 | GGCAGAGCUCAAAACAGCGUGGCAAAGUGGGUGUGGCUAGAAUGCC [C13A C31G C42A] | 0.1
6 | GGCAGAGCUCAAAACAGCGUGGCAAAGUGGCUGUGGUUAAACUGCC [C13A C37U G40A] | 0.29
7 | GGCAGAGCUCAAAACAACGUGGCAAAGUGGCUGUGGCUAUACUGCC [C13A G17A G40U] | 0.05
8 | GGCAGAGCUCAAAACACGGUGGCAAAGUGGCUGUGGCUAGACUGUC [C13A G17C C18G C45U] | 0.02
9 | GGCAGAGCUCAAAACAUCGUGGCAUAGUGGCUGUGGCUAGACUGCC [C13A G17U A25U] | 0.09
10 | GGCAGAGCUCAAAACAUCGUGGCAAAGUGGCUGUGGCUAGUCUGUC [C13A G17U A41U C45U] | 0.03
11 | GGCAGAGCUCAAAACAUCGCGGCAAAGUGGCUGUGGCUCGACUGCC [C13A G17U U20C A39C] | 0.04
12 | GGCAGAGCUCAAAACAGCAUGGCAAAGUGGCUGUGGCUAGCGUGCC [C13A G19A A41C C42G] | 0.04
13 | GGCAGAGCUCAAAACAGCAUCGUAAAGUGGCUGUGGUUAGACUGCC [C13A G19A G21C C23U C37U] | 0.12
14 | GGCAGAGCUCAAAACAGCCUGGCAAAGUGGCUGUGGCUAGACUGCA [C13A G19C C46A] | 0.04
15 | GGCAGAGCUCAAAACAGCCUGCCAAAGUGGCUUUGGCUAGACUGCC [C13A G19C G22C G33U] | 0.01
16 | GGCAGAGCUCAAAACAGCCUGGCAAAGUGGCUUUGGGCAGACUGGC [C13A G19C G33U C37G U38C C45G] | 0.02
17 | GGCAGAGCUCAAAACAGCCUGGCAAAGUGGCAGUGGCUAGACUGCC [C13A G19C U32A] | 0.04
18 | GGCAGAGCUCAAAACAGCCUGGCAAAGUGGCUGAGGCUAGACUGCC [C13A G19C U34A] | 0.05
19 | GGCAGAGCUCAAAACAGCUUGGCAAAGUGGCUGUGGCUCGACUGCC [C13A G19U A39C] | 0.04

Row | Variant | self-cleavage
20 | GGCAGAGCUCAAAACAGCUUGGGAAAGUGGCUGUGGCUAGACUGCC [C13A G19U C23G] | 0.1
21 | GGCAGAGCUCAAAACAGCGUAGCCAAGUAGCUGUGGCUAGACUGCC [C13A G21A A24C G29A] | 0.19
22 | GGCAGAGCUCAAAACAGCGUAGCAAAGUUGGUGUGGCUAGACUUCC [C13A G21A G29U C31G G44U] | 0.03
23 | GGCAGAGCUCAAAACAGCGUCGUAAAGUGGCUGCGGCUAGACUGCC [C13A G21C C23U U34C] | 0.05
24 | GGCAGAGCUCAAAACAGCGUCGCAAAGUGGUUGUGGCUAGACUGCC [C13A G21C C31U] | 0.17
25 | GGCAGAGCUCAAAACAGCGUUGCAAAGUGGCUGUGGCUAGACUGGC [C13A G21U C45G] | 0.02
26 | GGCAGAGCUCAAAACAGCGUUGCAAAGUGGCAGUGGCUAGACUGCC [C13A G21U U32A] | 0.28
27 | GGCAGAGCUCAAAACAGCGUGACAACGUGGCUGUGGCUAGACUGCC [C13A G22A A26C] | 0.1
28 | GGCAGAGCUCAAAACAGCGUGUCAAAGUGGCUGUGGCUAGUCUGCC [C13A G22U A41U] | 0.14
29 | GGCAGAGCUCAAAACAGCGUGGCAAAUUGGCUGUGGUUACACUGCC [C13A G27U C37U G40C] | 0.02
30 | GGCAGAGCUCAAAACAGCGUGGCAAAUUGGCUGUUGCUAGACUGCC [C13A G27U G35U] | 0.76
31 | GGCAGAGCUCAAAACAGCGUGGCAAAGUUGCUGUGGCUGGACUGCC [C13A G29U A39G] | 0.03
32 | GGCAGAGCUCAAAACAGCGUGGCAAAGUUGCUGUAGCUAGACUGCC [C13A G29U G35A] | 0.19
33 | GGCAGAGCUCAAAACAGCGUGGCAAAGUUGCUGUCACUAGACUUCC [C13A G29U G35C G36A G44U] | 0.1
34 | GGCAGAGCUCAAAACAGCGUGGCAAAGUGACCGUGGCUAGACUGCC [C13A G30A U32C] | 0.03
35 | GGCAGAGCUCAAAACAGCGUGGCAAAGUGUCUGUGGCUAUACUGCC [C13A G30U G40U] | 0.07
36 | GGCAGAGCUCAAAACAGCGUGGCAAAGUGGCUAUGGCUAGACUCCC [C13A G33A G44C] | 0.06
37 | GGCAGAGCUCAAAACAGCGUGGCAAAGUGGCUCUGGCUAGACUGAC [C13A G33C C45A] | 0.02
38 | GGCAGAGCUCAAAACAGCGUGGCAAAGUGGCUCUGCCUAGACUGCC [C13A G33C G36C] | 0.02

Row | Variant | self-cleavage
39 | GGCAGAGCUCAAAACAGCGUGGCAAAGUGGCUGUUGCGAGACUGCC [C13A G35U U38G] | 0
40 | GGCAGAGCUCAAAACAGCGUGGCAAAGUGGCUGUGUCUAUACUACC [C13A G36U G40U G44A] | 0.25
41 | GGCAGAGCUCAAAACAGCGCGUCAAAGUGGCUGCGGUUAGACUGCC [C13A U20C G22U U34C C37U] | 0.04
42 | GGCAGAGCUCAAAACAGCGCGGCAAAUUGGCUGUGGCUAGACUGCC [C13A U20C G27U] | 0.06
43 | GGCAGAGCUCAAAACAGCGCGGCAAAGUGGCUGGGGCUAGACUGCC [C13A U20C U34G] | 0.02
44 | GGCAGAGCUCAAAACAGCGGGGCAAUGUGGCUCUGGCUAGGCUGCC [C13A U20G A26U G33C A41G] | 0.01
45 | GGCAGAGCUCAAAACAGCGGGGCAAACUGGAUGUGGCUAGAGUGCC [C13A U20G G27C C31A C42G] | 0.05
46 | GGCAGAGCUCAAAACAGCGUGGCAAAGCGGCUGUGGUUAGCCUGCC [C13A U28C C37U A41C] | 0.02
47 | GGCAGAGCUCAAAACAGCGUGGCAAAGCGGCUGUGGUUAGAUUGCC [C13A U28C C37U C42U] | 0.05
48 | GGCAGAGCUCAAAACAGCGUGGCAAAGGGGCUGUGGCUAGACUGGC [C13A U28G C45G] | 0.02
49 | GGCAGAGCUCAAAACAGCGUGGCAAAGGGGCUGUGGCUACACUGCC [C13A U28G G40C] | 0.04
50 | GGCAGAGCUCAAAACAGCGUGGCAAAGUGGCCGUGGAUAGACUGCC [C13A U32C C37A] | 0.06
51 | GGCAGAGCUCAAAACAGCGUGGCAAAGUGGCCAUGGCUAGACUGCC [C13A U32C G33A] | 0.01
52 | GGCAGAGCUCAAAACAGCGUGGCAAAGUGGCUGAGGCUAGUCUGCC [C13A U34A A41U] | 0.01
53 | GGCAGAGCUCAAAACAGCGUGGCAAAGUGGCUGCGGCUAGACUGUC [C13A U34C C45U] | 0.04
54 | GGCAGAGCUCAAAACAGCGUGGCAAAGUGGCUGUGGCCAGACUGGC [C13A U38C C45G] | 0.07
55 | GGCAGAGCUCAAGGCAGCUUGGCAAAGUGGCUGUGGCUAGACUGCC [C13G A14G G19U] | 0.03
56 | GGCAGAGCUCAAGGCAGCGUGGCAAAGUGGCCGUGGCUAGACUGCC [C13G A14G U32C] | 0.02
